In US20240384006A1 (Amgen, published 2024):
Numbering of substitutions follows the chain as printed. In names and notes the source's numbering stands. Each block holds one binder with its values, some of them ahead of it.

Key:
[1] = target: T1, human CD20 (human, UniProt P11836 1-297); test: cell-based or functional assay
T1 sequence (looked up): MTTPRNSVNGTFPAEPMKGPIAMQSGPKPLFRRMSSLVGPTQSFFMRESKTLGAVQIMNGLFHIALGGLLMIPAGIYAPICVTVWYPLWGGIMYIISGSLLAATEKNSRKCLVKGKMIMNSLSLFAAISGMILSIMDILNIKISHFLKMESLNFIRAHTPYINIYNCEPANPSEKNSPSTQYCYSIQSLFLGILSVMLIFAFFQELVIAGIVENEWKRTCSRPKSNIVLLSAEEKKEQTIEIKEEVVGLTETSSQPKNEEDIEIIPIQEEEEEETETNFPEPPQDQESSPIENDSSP

[2] = target: T2, human CD22 (human, UniProt P20273 20-847); test: cell-based or functional assay
T2 sequence (looked up): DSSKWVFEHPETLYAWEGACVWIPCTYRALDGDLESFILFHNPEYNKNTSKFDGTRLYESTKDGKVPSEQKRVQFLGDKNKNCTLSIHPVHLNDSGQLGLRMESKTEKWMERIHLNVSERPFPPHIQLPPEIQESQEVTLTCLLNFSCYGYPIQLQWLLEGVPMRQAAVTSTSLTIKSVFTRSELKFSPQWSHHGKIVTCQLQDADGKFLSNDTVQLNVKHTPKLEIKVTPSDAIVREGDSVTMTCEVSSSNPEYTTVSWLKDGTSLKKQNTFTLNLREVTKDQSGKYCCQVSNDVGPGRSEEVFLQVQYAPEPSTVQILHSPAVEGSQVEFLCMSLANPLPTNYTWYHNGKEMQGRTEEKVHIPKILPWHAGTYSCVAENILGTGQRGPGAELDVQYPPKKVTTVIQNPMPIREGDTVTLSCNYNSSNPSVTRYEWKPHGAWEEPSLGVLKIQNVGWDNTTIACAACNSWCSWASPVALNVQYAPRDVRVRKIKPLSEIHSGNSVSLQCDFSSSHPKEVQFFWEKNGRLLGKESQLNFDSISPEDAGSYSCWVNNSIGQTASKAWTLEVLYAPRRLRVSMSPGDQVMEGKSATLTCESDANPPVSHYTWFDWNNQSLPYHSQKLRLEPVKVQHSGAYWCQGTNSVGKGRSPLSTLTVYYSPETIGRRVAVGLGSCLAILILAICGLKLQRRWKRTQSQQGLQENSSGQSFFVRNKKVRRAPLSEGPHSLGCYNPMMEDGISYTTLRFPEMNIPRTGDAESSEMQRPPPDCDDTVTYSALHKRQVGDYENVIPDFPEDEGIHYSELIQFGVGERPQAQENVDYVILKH

[3] = target: T3, cyno CD20 (cyno, UniProt M4ZHZ6 1-297); test: cyno Kd divided by human Kd, cell-based affinity on CHO cells
T3 construct: whole, on cells; also called cy CD20
T3 sequence: T1 sequence (looked up) with S25P, F31L, T51A, A157V, K217R, N226S, I227V, T239V

[4] = target: T4, cyno CD22 (cyno); test: as above
T4 construct: whole, on cells; also called cy CD22

[5] = target: T3, cyno CD20; test: flow cytometry on CHO cells expressing cyno CD20, one site-specific binding fit, mean of three
[6] = target: T4, cyno CD22; test: flow cytometry on CHO cells expressing cyno CD22, one site-specific binding fit, mean of three
[7] = target: T1, human CD20; test: flow cytometry on CHO cells expressing human CD20, one site-specific binding fit, mean of three
[8] = target: T2, human CD22; test: flow cytometry on CHO cells expressing human CD22, one site-specific binding fit, mean of three

Affinity gap Kdcy/Kdhu CD20 [3]: 1.01
Affinity gap Kdcy/Kdhu CD22 [4]: 16.6
Kd [5]: 4.76 nM
Kd [6]: 4.16 nM
Kd [7]: 4.69 nM
Kd [8]: 0.25 nM
B1: CD20 82-E2 CC × CD22 43-F7 CC × I2E × scFc (M8E) (bispecific antibody)
chain: EVQLVESGGGLVQPGGSLTLSCAASGFTFHDYTMHWVRQTPGKCLEWLSGIGWNGYSKGYADSVKGRFTISRDNAKNSLFLQMNSLTSDDTALYYCVKDYHYGSGILDNYYGLDVWGQGTTVTVSSGGGGSGGGGSGGGGSEIVLTQSPATLSVSPGERATLSCRASQSISNNLAWYQQKPGQAPRLLIYGASSRATGIPDRFSGSGSGTEFTLTISSLQSEDFAVYYCQQYKNWPLTFGCGTKVDIKSGGGGSQVQLVQSGGEVKKPGASVKVSCKASGYTFTSYGISWVRQAPGQCLEWMGWISPQTGNAIYAQKLQGRVTMTRDTSTSTAYMELRSLRSDDTAVYYCARDPDYYGSGSYSDYWGQGTLVTVSSGGGGSGGGGSGGGGSEIVLTQSPATLSVSPGERATLSCRASQSVSSNLAWYQQKPGQAPRLLIYGASSRATGIPARFSGSGSGTEFTLTISSLQSEDFAVYYCQQYHSWPLLTFGCGTKVEIKSGGGGSEVQLVESGGGLVQPGGSLKLSCAASGFTFNKYAINWVRQAPGKGLEWVARIRSKYNNYATYYADAVKDRFTISRDDSKNTVYLQMNNLKTEDTAVYYCARAGNFGSSYISYWAYWGQGTLVTVSSGGGGSGGGGSGGGGSQTVVTQEPSLTVSPGGTVTIT[in this place about 80 residues]FGSGTKLTVLGGGG[in this place human IgG1 Fc with R292C N297G V302C (EU numbers)]GGGGSGGGGSGGGGSGGGGSGGGGSGGGGS[in this place human IgG1 Fc with R292C N297G V302C (EU numbers)]
notes: Single chain: anti-CD20 scFv, anti-CD22 scFv, anti-CD3 scFv (I2E), scFc
EC50, 48-hour FACS based cytotoxicity assay, Oci-Ly 1 CD22 k.o. #A1 [1]: 0.00151 nM
EC50, 48-hour FACS based cytotoxicity assay, Oci-Ly 1 CD20 k.o. #A5 [2]: 0.00569 nM

Affinity gap Kdcy/Kdhu CD20 [3]: 1.19
Affinity gap Kdcy/Kdhu CD22 [4]: 5.87
Kd [5]: 15.8 nM
Kd [6]: 1.82 nM
Kd [7]: 13.3 nM
Kd [8]: 0.31 nM
B2: CD20 82-D2 CC × CD22 43-A8 CC × I2E × scFc (H1C) (bispecific antibody)
chain: EVQLLESGGGLVQPGGSLRLSCAASGFTFSGHAMTWVRQAPGKCLEWLSTIYGSGGYTYYAGSVKGRFTISRDNSKNTLYLQMNSLRAEDTAVYYCAKVGGYDWYFDLWGRGTLVTVSSGGGGSGGGGSGGGGSSYELTQPPSVSVALGQTARITCGGHNIGSKNVHWYQQKPGQAPVLVIYRDTNRPSGIPERFSGSNSGNTATLTISRAQAGDEADYYCQLWDSTTVVFGCGTKLTVLSGGGGSQVQLVQSGGEVKKPGASVKVSCKASGYTFTSYGISWVRQAPGQCLEWMGWISAYTGETLYAQKLQGRVTMTRDTSTSTAYMELRSLRSDDTAVYYCARDPDYYGSGSYSDYWGQGTLVTVSSGGGGSGGGGSGGGGSEIVLTQSPATLSVSPGERATLSCRASQSVSSNLAWYQQKPGQAPRLLIYGASSRATGIPARFSGSGSGTEFTLTISSLQSEDFAVYYCQQYHSWPLLTFGCGTKVEIKSGGGGSEVQLVESGGGLVQPGGSLKLSCAASGFTFNKYAINWVRQAPGKGLEWVARIRSKYNNYATYYADAVKDRFTISRDDSKNTVYLQMNNLKTEDTAVYYCARAGNFGSSYISYWAYWGQGTLVTVSSGGGGSGGGGSGGGGSQTVVTQEPSLTVSPGGTVTIT[in this place about 80 residues]FGSGTKLTVLGGGG[in this place human IgG1 Fc with R292C N297G V302C (EU numbers)]GGGGSGGGGSGGGGSGGGGSGGGGSGGGGS[in this place human IgG1 Fc with R292C N297G V302C (EU numbers)]
notes: as for B1
EC50, 48-hour FACS based cytotoxicity assay, Oci-Ly 1 CD22 k.o. #A1 [1]: 0.0138 nM
EC50, 48-hour FACS based cytotoxicity assay, Oci-Ly 1 CD20 k.o. #A5 [2]: 0.0141 nM
